# Some of the results follow.
# B1: HML-Native (Hypnea musciformis), P84871 (protein)
# chain: QKFCTLDIAPVCCQIVIGGGMYTAGNACMCEGFVSGVGRCENPKECPCTREAQIPSCCSSRWGLVSVTGKCACDCLGGTVAFPEPCPSPY
# What was measured:
# Experiment in all cases: glycan array binding signal (z-score within array); higher = stronger binding
# Details in all cases: glycan notation: IUPAC condensed, linker removed
# [1] = target: Fuc(a1-3)[Gal3S(b1-4)]GlcNAc
# In short: (§1)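 Glycan array data were curated from 3228 arrays in the Consortium for Functional Glycomics database and kept only where the protein sequence was available. Glycan names were converted to IUPAC-condensed notation, and columns mapping to the same glycan were averaged. The binding signal is a within-array Z-score, averaged across arrays of the same protein sequence at different concentrations or buffers and across linkers. Negative Z-scores can be read as non-binding.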
# [2] = target: Fuc(a1-3)[Gal3S(b1-4)]GlcNAc6S
# In short: as §1
# [3] = target: Fuc(a1-3)[GalNAc(b1-4)]GlcNAc
# In short: as §1
# [4] = target: Fuc(a1-3)[GalNAc(b1-4)]GlcNAc6S
# In short: as §1
# Fuc(a1-4)GlcNAc = target: Fuc(a1-4)GlcNAc
# In short: as §1
# Fuc(b1-3)GlcNAc = target: Fuc(b1-3)GlcNAc
# In short: as §1
# Gal(a1-2)Gal = target: Gal(a1-2)Gal
# In short: as §1
# Gal(a1-3)Gal = target: Gal(a1-3)Gal
# In short: as §1
# Gal(a1-3)Gal(b1-3)GlcNAc = target: Gal(a1-3)Gal(b1-3)GlcNAc
# In short: as §1
# [5] = target: Gal(a1-3)Gal(b1-3)GlcNAc(b1-2)Man
# In short: as §1
# [6] = target: Gal(a1-3)Gal(b1-3)GlcNAc(b1-2)Man(a1-3)[Gal(a1-3)Gal(b1-3)GlcNAc(b1-2)Man(a1-6)]Man(b1-4)GlcNAc(b1-4)GlcNAc
# In short: as §1
# [7] = target: Gal(a1-3)Gal(b1-3)GlcNAc(b1-3)GalNAc
# In short: as §1
# [8] = target: Gal(a1-3)Gal(b1-3)GlcNAc(b1-6)GalNAc
# In short: as §1
# [9] = target: Gal(a1-3)Gal(b1-3)[Fuc(a1-4)]GlcNAc(b1-2)Man(a1-3)[Gal(a1-3)Gal(b1-3)[Fuc(a1-4)]GlcNAc(b1-2)Man(a1-6)]Man(b1-4)GlcNAc(b1-4)GlcNAc
# In short: as §1
# Gal(a1-3)Gal(b1-4)Glc = target: Gal(a1-3)Gal(b1-4)Glc
# In short: as §1
# Gal(a1-3)Gal(b1-4)GlcNAc = target: Gal(a1-3)Gal(b1-4)GlcNAc
# In short: as §1
# [10] = target: Gal(a1-3)Gal(b1-4)GlcNAc(b1-2)Man
# In short: as §1
# [11] = target: Gal(a1-3)Gal(b1-4)GlcNAc(b1-2)Man(a1-3)[Gal(a1-3)Gal(b1-4)GlcNAc(b1-2)Man(a1-6)]Man(b1-4)GlcNAc(b1-4)GlcNAc
# In short: as §1
# [12] = target: Gal(a1-3)Gal(b1-4)GlcNAc(b1-3)GalNAc
# In short: as §1
# [13] = target: Gal(a1-3)Gal(b1-4)GlcNAc(b1-6)GalNAc
# In short: as §1
# [14] = target: Gal(a1-3)Gal(b1-4)[Fuc(a1-3)]GlcNAc
# In short: as §1
# [15] = target: Gal(a1-3)Gal(b1-4)[Fuc(a1-3)]GlcNAc(b1-2)Man(a1-3)[Gal(a1-3)Gal(b1-4)[Fuc(a1-3)]GlcNAc(b1-2)Man(a1-6)]Man(b1-4)GlcNAc(b1-4)GlcNAc
# In short: as §1
# Gal(a1-3)GalNAc = target: Gal(a1-3)GalNAc
# In short: as §1
# [16] = target: Gal(a1-3)[Gal(a1-4)]Gal(b1-4)GlcNAc
# In short: as §1
# [17] = target: Gal(a1-4)Gal(b1-3)GlcNAc(b1-2)Man(a1-3)[Gal(a1-4)Gal(b1-3)GlcNAc(b1-2)Man(a1-6)]Man(b1-4)GlcNAc(b1-4)GlcNAc
# In short: as §1
# Gal(a1-4)Gal(b1-4)Glc = target: Gal(a1-4)Gal(b1-4)Glc
# In short: as §1
# Gal(a1-4)Gal(b1-4)GlcNAc = target: Gal(a1-4)Gal(b1-4)GlcNAc
# In short: as §1
# [18] = target: Gal(a1-4)Gal(b1-4)GlcNAc(b1-2)Man(a1-3)[Gal(a1-4)Gal(b1-4)GlcNAc(b1-2)Man(a1-6)]Man(b1-4)GlcNAc(b1-4)GlcNAc
# In short: as §1
# [19] = target: Gal(a1-4)Gal(b1-4)GlcNAc(b1-3)Gal(b1-4)Glc
# In short: as §1
# Gal(a1-4)GlcNAc = target: Gal(a1-4)GlcNAc
# In short: as §1
# Gal(a1-6)Glc = target: Gal(a1-6)Glc
# In short: as §1
# Gal(b1-2)Gal = target: Gal(b1-2)Gal
# In short: as §1
# Gal(b1-3)Gal = target: Gal(b1-3)Gal
# In short: as §1
# Gal(b1-3)Gal(b1-4)GlcNAc = target: Gal(b1-3)Gal(b1-4)GlcNAc
# In short: as §1
# Gal(b1-3)GalNAc = target: Gal(b1-3)GalNAc
# In short: as §1
# [20] = target: Gal(b1-3)GalNAc(a1-3)[Fuc(a1-2)]Gal(b1-4)Glc
# In short: as §1
# [21] = target: Gal(b1-3)GalNAc(a1-3)[Fuc(a1-2)]Gal(b1-4)GlcNAc
# In short: as §1
# Gal(b1-3)GalNAc(b1-3)Gal = target: Gal(b1-3)GalNAc(b1-3)Gal
# In short: as §1
# [22] = target: Gal(b1-3)GalNAc(b1-3)Gal(a1-4)Gal(b1-4)Glc
# In short: as §1
# [23] = target: Gal(b1-3)GalNAc(b1-4)Gal(b1-4)Glc
# In short: as §1
# [24] = target: Gal(b1-3)GalNAc(b1-4)[Neu5Ac(a2-3)]Gal(b1-4)Glc
# In short: as §1
# Gal(b1-3)GlcNAc = target: Gal(b1-3)GlcNAc
# In short: as §1
# [25] = target: Gal(b1-3)GlcNAc(a1-3)Gal(b1-4)GlcNAc
# In short: as §1
# [26] = target: Gal(b1-3)GlcNAc(a1-6)Gal(b1-4)GlcNAc
# In short: as §1
# Gal(b1-3)GlcNAc(b1-2)Man = target: Gal(b1-3)GlcNAc(b1-2)Man
# In short: as §1
binder,measurement,setting,value
B1,glycan array binding signal (z-score),[1],-0.253
same,glycan array binding signal (z-score),[2],-0.117
same,glycan array binding signal (z-score),[3],-0.105
same,glycan array binding signal (z-score),[4],-0.222
same,glycan array binding signal (z-score),Fuc(a1-4)GlcNAc,0.088
same,glycan array binding signal (z-score),Fuc(b1-3)GlcNAc,-0.206
same,glycan array binding signal (z-score),Gal(a1-2)Gal,-0.317
same,glycan array binding signal (z-score),Gal(a1-3)Gal,-0.255
same,glycan array binding signal (z-score),Gal(a1-3)Gal(b1-3)GlcNAc,-0.249
same,glycan array binding signal (z-score),[5],-0.28
same,glycan array binding signal (z-score),[6],-0.026
same,glycan array binding signal (z-score),[7],-0.311
same,glycan array binding signal (z-score),[8],-0.31
same,glycan array binding signal (z-score),[9],-0.184
same,glycan array binding signal (z-score),Gal(a1-3)Gal(b1-4)Glc,-0.238
same,glycan array binding signal (z-score),Gal(a1-3)Gal(b1-4)GlcNAc,-0.241
same,glycan array binding signal (z-score),[10],-0.264
same,glycan array binding signal (z-score),[11],0.092
same,glycan array binding signal (z-score),[12],-0.239
same,glycan array binding signal (z-score),[13],-0.32
same,glycan array binding signal (z-score),[14],-0.33
same,glycan array binding signal (z-score),[15],-0.061
same,glycan array binding signal (z-score),Gal(a1-3)GalNAc,-0.183
same,glycan array binding signal (z-score),[16],-0.27
same,glycan array binding signal (z-score),[17],-0.05
same,glycan array binding signal (z-score),Gal(a1-4)Gal(b1-4)Glc,-0.029
same,glycan array binding signal (z-score),Gal(a1-4)Gal(b1-4)GlcNAc,-0.178
same,glycan array binding signal (z-score),[18],0.011
same,glycan array binding signal (z-score),[19],-0.211
same,glycan array binding signal (z-score),Gal(a1-4)GlcNAc,-0.254
same,glycan array binding signal (z-score),Gal(a1-6)Glc,-0.261
same,glycan array binding signal (z-score),Gal(b1-2)Gal,-0.247
same,glycan array binding signal (z-score),Gal(b1-3)Gal,-0.173
same,glycan array binding signal (z-score),Gal(b1-3)Gal(b1-4)GlcNAc,-0.348
same,glycan array binding signal (z-score),Gal(b1-3)GalNAc,-0.245
same,glycan array binding signal (z-score),[20],-0.277
same,glycan array binding signal (z-score),[21],-0.299
same,glycan array binding signal (z-score),Gal(b1-3)GalNAc(b1-3)Gal,-0.308
same,glycan array binding signal (z-score),[22],-0.12
same,glycan array binding signal (z-score),[23],-0.187
same,glycan array binding signal (z-score),[24],-0.318
same,glycan array binding signal (z-score),Gal(b1-3)GlcNAc,-0.171
same,glycan array binding signal (z-score),[25],-0.285
same,glycan array binding signal (z-score),[26],-0.32
same,glycan array binding signal (z-score),Gal(b1-3)GlcNAc(b1-2)Man,-0.116

# Source: the supplement of paper PMC8728848
